{
  "source": "the supplement of paper PMC8728848",
  "assay_in_all_cases": "glycan array binding signal (z-score within array); higher = stronger binding",
  "conditions_in_all_cases": "glycan notation: IUPAC condensed, linker removed",
  "key": {"[1]": {"biological_target": "Gal(b1-4)GlcNAc(b1-2)[Gal(b1-4)GlcNAc(b1-6)]Man(a1-6)[GlcNAc(b1-4)][Gal(b1-4)GlcNAc(b1-2)Man(a1-3)]Man(b1-4)GlcNAc(b1-4)GlcNAc", "outline": "(§1)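 Negative Z-scores can be read as non-binding. The Z-score is calculated within each array and then averaged across arrays of one protein sequence at different concentrations or buffers and across linkers. Arrays, 3228 in all, were curated from the Consortium for Functional Glycomics database and kept only where the protein sequence was available.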"}, "[2]": {"biological_target": "Gal(b1-4)GlcNAc(b1-2)[Gal(b1-4)GlcNAc(b1-6)]Man(a1-6)[GlcNAc(b1-4)][Gal(b1-4)GlcNAc(b1-2)[Gal(b1-4)GlcNAc(b1-4)]Man(a1-3)]Man(b1-4)GlcNAc(b1-4)[Fuc(a1-6)]GlcNAc", "outline": "as §1"}, "[3]": {"biological_target": "Gal(b1-4)GlcNAc(b1-3)Gal(b1-3)GalNAc", "outline": "as §1"}, "[4]": {"biological_target": "Gal(b1-4)GlcNAc(b1-3)Gal(b1-3)GlcNAc", "outline": "as §1"}, "[5]": {"biological_target": "Gal(b1-4)GlcNAc(b1-3)Gal(b1-4)Glc", "outline": "as §1"}, "[6]": {"biological_target": "Gal(b1-4)GlcNAc(b1-3)Gal(b1-4)GlcNAc", "outline": "as §1"}, "[7]": {"biological_target": "Gal(b1-4)GlcNAc(b1-3)Gal(b1-4)GlcNAc(b1-2)Man(a1-3)[Gal(b1-4)GlcNAc(b1-3)Gal(b1-4)GlcNAc(b1-2)Man(a1-6)]Man(b1-4)GlcNAc(b1-4)GlcNAc", "outline": "as §1"}, "[8]": {"biological_target": "Gal(b1-4)GlcNAc(b1-3)Gal(b1-4)GlcNAc(b1-2)Man(a1-3)[Gal(b1-4)GlcNAc(b1-3)Gal(b1-4)GlcNAc(b1-2)Man(a1-6)]Man(b1-4)GlcNAc(b1-4)[Fuc(a1-6)]GlcNAc", "outline": "as §1"}, "[9]": {"biological_target": "Gal(b1-4)GlcNAc(b1-3)Gal(b1-4)GlcNAc(b1-2)[Gal(b1-4)GlcNAc(b1-3)Gal(b1-4)GlcNAc(b1-6)]Man(a1-6)[Gal(b1-4)GlcNAc(b1-3)Gal(b1-4)GlcNAc(b1-2)Man(a1-3)]Man(b1-4)GlcNAc(b1-4)GlcNAc", "outline": "as §1"}, "[10]": {"biological_target": "Gal(b1-4)GlcNAc(b1-3)Gal(b1-4)GlcNAc(b1-2)[Gal(b1-4)GlcNAc(b1-3)Gal(b1-4)GlcNAc(b1-6)]Man(a1-6)[Gal(b1-4)GlcNAc(b1-3)Gal(b1-4)GlcNAc(b1-2)Man(a1-3)]Man(b1-4)GlcNAc(b1-4)[Fuc(a1-6)]GlcNAc", "outline": "as §1"}, "[11]": {"biological_target": "Gal(b1-4)GlcNAc(b1-3)Gal(b1-4)GlcNAc(b1-3)Gal(b1-4)GlcNAc", "outline": "as §1"}, "[12]": {"biological_target": "Gal(b1-4)GlcNAc(b1-3)Gal(b1-4)GlcNAc(b1-3)Gal(b1-4)GlcNAc(b1-2)Man(a1-3)[Gal(b1-4)GlcNAc(b1-3)Gal(b1-4)GlcNAc(b1-3)Gal(b1-4)GlcNAc(b1-2)Man(a1-6)]Man(b1-4)GlcNAc(b1-4)GlcNAc", "outline": "as §1"}, "[13]": {"biological_target": "Gal(b1-4)GlcNAc(b1-3)Gal(b1-4)GlcNAc(b1-3)Gal(b1-4)GlcNAc(b1-2)Man(a1-3)[Gal(b1-4)GlcNAc(b1-3)Gal(b1-4)GlcNAc(b1-3)Gal(b1-4)GlcNAc(b1-2)Man(a1-6)]Man(b1-4)GlcNAc(b1-4)[Fuc(a1-6)]GlcNAc", "outline": "as §1"}, "[14]": {"biological_target": "Gal(b1-4)GlcNAc(b1-3)Gal(b1-4)GlcNAc(b1-3)Gal(b1-4)GlcNAc(b1-2)[Gal(b1-4)GlcNAc(b1-3)Gal(b1-4)GlcNAc(b1-3)Gal(b1-4)GlcNAc(b1-6)]Man(a1-6)[Gal(b1-4)GlcNAc(b1-3)Gal(b1-4)GlcNAc(b1-3)Gal(b1-4)GlcNAc(b1-2)Man(a1-3)]Man(b1-4)GlcNAc(b1-4)[Fuc(a1-6)]GlcNAc", "outline": "as §1"}, "[15]": {"biological_target": "Gal(b1-4)GlcNAc(b1-3)Gal(b1-4)GlcNAc(b1-3)Gal(b1-4)GlcNAc(b1-3)Gal(b1-4)GlcNAc(b1-2)Man(a1-3)[Gal(b1-4)GlcNAc(b1-3)Gal(b1-4)GlcNAc(b1-3)Gal(b1-4)GlcNAc(b1-3)Gal(b1-4)GlcNAc(b1-2)Man(a1-6)]Man(b1-4)GlcNAc(b1-4)GlcNAc", "outline": "as §1"}, "[16]": {"biological_target": "Gal(b1-4)GlcNAc(b1-3)Gal(b1-4)GlcNAc(b1-3)Gal(b1-4)GlcNAc(b1-3)Gal(b1-4)GlcNAc(b1-2)Man(a1-3)[Gal(b1-4)GlcNAc(b1-3)Gal(b1-4)GlcNAc(b1-3)Gal(b1-4)GlcNAc(b1-3)Gal(b1-4)GlcNAc(b1-2)Man(a1-6)]Man(b1-4)GlcNAc(b1-4)[Fuc(a1-6)]GlcNAc", "outline": "as §1"}, "[17]": {"biological_target": "Gal(b1-4)GlcNAc(b1-3)Gal(b1-4)GlcNAc(b1-3)Gal(b1-4)GlcNAc(b1-3)Gal(b1-4)GlcNAc(b1-2)[Gal(b1-4)GlcNAc(b1-3)Gal(b1-4)GlcNAc(b1-3)Gal(b1-4)GlcNAc(b1-3)Gal(b1-4)GlcNAc(b1-6)]Man(a1-6)[Gal(b1-4)GlcNAc(b1-3)Gal(b1-4)GlcNAc(b1-3)Gal(b1-4)GlcNAc(b1-3)Gal(b1-4)GlcNAc(b1-2)Man(a1-3)]Man(b1-4)GlcNAc(b1-4)[Fuc(a1-6)]GlcNAc", "outline": "as §1"}, "[18]": {"biological_target": "Gal(b1-4)GlcNAc(b1-3)Gal(b1-4)GlcNAc(b1-3)Gal(b1-4)GlcNAc(b1-3)Gal(b1-4)GlcNAc(b1-3)Gal(b1-4)GlcNAc(b1-2)Man(a1-3)[Gal(b1-4)GlcNAc(b1-3)Gal(b1-4)GlcNAc(b1-3)Gal(b1-4)GlcNAc(b1-3)Gal(b1-4)GlcNAc(b1-3)Gal(b1-4)GlcNAc(b1-2)Man(a1-6)]Man(b1-4)GlcNAc(b1-4)GlcNAc", "outline": "as §1"}, "[19]": {"biological_target": "Gal(b1-4)GlcNAc(b1-3)Gal(b1-4)GlcNAc(b1-3)Gal(b1-4)GlcNAc(b1-3)Gal(b1-4)GlcNAc(b1-3)Gal(b1-4)GlcNAc(b1-2)Man(a1-3)[Gal(b1-4)GlcNAc(b1-3)Gal(b1-4)GlcNAc(b1-3)Gal(b1-4)GlcNAc(b1-3)Gal(b1-4)GlcNAc(b1-3)Gal(b1-4)GlcNAc(b1-2)Man(a1-6)]Man(b1-4)GlcNAc(b1-4)[Fuc(a1-6)]GlcNAc", "outline": "as §1"}, "[20]": {"biological_target": "Gal(b1-4)GlcNAc(b1-3)Gal(b1-4)GlcNAc(b1-3)Gal(b1-4)GlcNAc(b1-3)Gal(b1-4)GlcNAc(b1-3)Gal(b1-4)GlcNAc(b1-2)[Gal(b1-4)GlcNAc(b1-3)Gal(b1-4)GlcNAc(b1-3)Gal(b1-4)GlcNAc(b1-3)Gal(b1-4)GlcNAc(b1-3)Gal(b1-4)GlcNAc(b1-6)]Man(a1-6)[Gal(b1-4)GlcNAc(b1-3)Gal(b1-4)GlcNAc(b1-3)Gal(b1-4)GlcNAc(b1-3)Gal(b1-4)GlcNAc(b1-3)Gal(b1-4)GlcNAc(b1-2)Man(a1-3)]Man(b1-4)GlcNAc(b1-4)[Fuc(a1-6)]GlcNAc", "outline": "as §1"}, "[21]": {"biological_target": "Gal(b1-4)GlcNAc(b1-3)Gal(b1-4)GlcNAc(b1-3)Gal(b1-4)GlcNAc(b1-3)Gal(b1-4)GlcNAc(b1-3)Gal(b1-4)GlcNAc(b1-3)Gal(b1-4)GlcNAc(b1-2)Man(a1-3)[Gal(b1-4)GlcNAc(b1-3)Gal(b1-4)GlcNAc(b1-3)Gal(b1-4)GlcNAc(b1-3)Gal(b1-4)GlcNAc(b1-3)Gal(b1-4)GlcNAc(b1-3)Gal(b1-4)GlcNAc(b1-2)Man(a1-6)]Man(b1-4)GlcNAc(b1-4)GlcNAc", "outline": "as §1"}, "[22]": {"biological_target": "Gal(b1-4)GlcNAc(b1-3)Gal(b1-4)GlcNAc(b1-3)GalNAc", "outline": "as §1"}, "[23]": {"biological_target": "Gal(b1-4)GlcNAc(b1-3)Gal(b1-4)GlcNAc(b1-3)[Gal(b1-4)GlcNAc(b1-3)Gal(b1-4)GlcNAc(b1-6)]GalNAc", "outline": "as §1"}},
  "note": "The other results are listed elsewhere or left out.",
  "data": [
    {"binder": "Thrombomodulin (Mus musculus) (protein) ALAKLQPTGSQCVEHECFALFQGPATFLDASQACQRLQGHLMTVRSSVAADVISLLLSQSSMDLGPWIGLQLPQGCDDPVHLGPLRGFQWVTGDNHTSYSRWARPNDQTAPLCGPLCVTVSTATEAAPGEPAWEEKPCETETQGFLCEFYFTASC", "values": [
      {"measurement": "glycan array binding signal (z-score)", "setting": "[1]", "value": -0.282},
      {"measurement": "glycan array binding signal (z-score)", "setting": "[2]", "value": -0.285},
      {"measurement": "glycan array binding signal (z-score)", "setting": "[3]", "value": 0.012},
      {"measurement": "glycan array binding signal (z-score)", "setting": "[4]", "value": -0.073},
      {"measurement": "glycan array binding signal (z-score)", "setting": "[5]", "value": 0.285},
      {"measurement": "glycan array binding signal (z-score)", "setting": "[6]", "value": -0.067},
      {"measurement": "glycan array binding signal (z-score)", "setting": "[7]", "value": 1.25},
      {"measurement": "glycan array binding signal (z-score)", "setting": "[8]", "value": -0.049},
      {"measurement": "glycan array binding signal (z-score)", "setting": "[9]", "value": -0.006},
      {"measurement": "glycan array binding signal (z-score)", "setting": "[10]", "value": 0.053},
      {"measurement": "glycan array binding signal (z-score)", "setting": "[11]", "value": -0.277},
      {"measurement": "glycan array binding signal (z-score)", "setting": "[12]", "value": 0.084},
      {"measurement": "glycan array binding signal (z-score)", "setting": "[13]", "value": 0.364},
      {"measurement": "glycan array binding signal (z-score)", "setting": "[14]", "value": 0.05},
      {"measurement": "glycan array binding signal (z-score)", "setting": "[15]", "value": -0.219},
      {"measurement": "glycan array binding signal (z-score)", "setting": "[16]", "value": 0.13},
      {"measurement": "glycan array binding signal (z-score)", "setting": "[17]", "value": -0.014},
      {"measurement": "glycan array binding signal (z-score)", "setting": "[18]", "value": 0.205},
      {"measurement": "glycan array binding signal (z-score)", "setting": "[19]", "value": -0.018},
      {"measurement": "glycan array binding signal (z-score)", "setting": "[20]", "value": 0.147},
      {"measurement": "glycan array binding signal (z-score)", "setting": "[21]", "value": -0.233},
      {"measurement": "glycan array binding signal (z-score)", "setting": "[22]", "value": 0.141},
      {"measurement": "glycan array binding signal (z-score)", "setting": "[23]", "value": 0.052}
    ]}
  ]
}
